# Whole data set: some 33,000 sequences, median “E-score (-0.5 to 0.5)” near -0.035, cut for the highest 2% near 0.35. The list shows a part of the results.
# Molecular target: T1, Pdr3 (UniProt P33200)
# T1 sequence: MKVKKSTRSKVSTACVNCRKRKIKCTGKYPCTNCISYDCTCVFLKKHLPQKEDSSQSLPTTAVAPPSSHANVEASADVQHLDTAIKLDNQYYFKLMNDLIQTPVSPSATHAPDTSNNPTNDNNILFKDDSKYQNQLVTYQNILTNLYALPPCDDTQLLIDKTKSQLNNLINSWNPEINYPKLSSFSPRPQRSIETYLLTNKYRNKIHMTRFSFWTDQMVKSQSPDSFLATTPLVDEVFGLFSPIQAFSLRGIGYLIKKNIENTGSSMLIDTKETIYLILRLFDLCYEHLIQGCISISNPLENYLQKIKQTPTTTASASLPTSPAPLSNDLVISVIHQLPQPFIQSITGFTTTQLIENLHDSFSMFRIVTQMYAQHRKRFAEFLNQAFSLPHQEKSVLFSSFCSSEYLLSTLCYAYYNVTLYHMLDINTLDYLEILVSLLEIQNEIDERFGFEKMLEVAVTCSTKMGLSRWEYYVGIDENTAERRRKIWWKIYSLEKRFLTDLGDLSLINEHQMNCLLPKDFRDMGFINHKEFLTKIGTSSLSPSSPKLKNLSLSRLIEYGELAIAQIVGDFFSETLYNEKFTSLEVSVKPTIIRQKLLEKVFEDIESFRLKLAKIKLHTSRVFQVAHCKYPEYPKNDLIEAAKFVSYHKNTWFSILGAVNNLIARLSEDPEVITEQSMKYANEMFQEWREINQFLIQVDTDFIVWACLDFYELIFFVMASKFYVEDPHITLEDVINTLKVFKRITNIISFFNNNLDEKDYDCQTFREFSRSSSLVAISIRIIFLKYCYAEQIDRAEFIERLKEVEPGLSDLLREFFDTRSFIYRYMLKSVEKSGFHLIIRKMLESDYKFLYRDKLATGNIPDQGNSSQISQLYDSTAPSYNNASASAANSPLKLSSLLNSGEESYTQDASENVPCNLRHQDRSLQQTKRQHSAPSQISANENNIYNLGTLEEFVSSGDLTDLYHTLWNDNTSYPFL
# Test: PBM E-score (8-mer binding enrichment) (E-score (-0.5 to 0.5)); higher = stronger / more preferred TF binding; most listed sequences are background and not binding sites
# Settings: protein concentration: 200 nM; construct: GST-full length
# Protocol: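 Universal 'all 10-mer' protein binding microarrays (Agilent AMADID 015681) probed with GST-tagged S. cerevisiae TFs (full-length or DBD) made by in vitro transcription/translation (PURExpress), about 100-200 nM. Bound TF was detected with fluorescent anti-GST. Each ungapped 8-mer (which stands for itself and its reverse complement) is scored by the PBM enrichment score (E-score), a modified Wilcoxon-Mann-Whitney statistic from -0.5 to +0.5, computed with the Universal PBM Analysis Suite. Scale: above 0.35 generally sequence-specific binding.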
row,Sequence,PBM E-score
1,CGGAGAAA,0.308
2,CAGCAGAC,-0.02
3,TATGTGAA,-0.273
4,GCCTAACC,-0.131
5,CAAAGTCC,-0.0636
6,TAGAGTAA,-0.0312
7,AGATCAAG,-0.0561
8,AAGGTTCG,-0.0878
9,GTTGGCAA,-0.0457
10,GAAGTAGC,0.0381
11,AACCACAT,-0.104
12,GATGGGGA,0.117
13,GTGGCCAA,-0.0495
14,GGCCTTTA,-0.123
15,ACCTGCGT,-0.00471
16,CGCATACG,0.1
17,CCTTAAGG,-0.0211
18,ATCAGTCC,-0.145
19,GGGTTGAA,-0.0149
20,CGCTAGGA,-0.0989
21,CGAGTAGA,-0.0392
22,ACAAAATC,0.0149
23,ACTTGATG,-0.02
24,GGGAATCA,0.0382
25,CAAAGCCG,0.00836

row,Sequence,PBM E-score
1,TAAAGGCA,-0.0458
2,ACAAAAGT,-0.0787
3,AAGGGACG,-0.0816
4,CTCGTCCC,0.0112
5,CTCCAGCC,-0.0126
6,ATTATTTG,-0.0361
7,ACCTTTCG,-0.037
8,CTTCCCAA,-0.0991
9,GATATAAC,0.00998
10,GTGGGGGA,-0.297
11,ATCACCCG,0.358
12,CGATTGGC,0.0251
13,AAGTAAGC,-0.122
14,CCGAGGTC,0.331
15,TCTCCTCA,-0.171
16,GGAGTCTA,-0.145
17,ATCCTTAA,-0.267
18,GAGTCCGA,0.236
19,GCCTAAGA,-0.167
20,GTGACTAA,-0.0412
21,ACCCACGA,-0.0144
22,GAGGCTGA,-0.305
23,ATATCTCA,0.0784
24,GGCGAGTA,0.111
25,TACGAGTA,-0.0197

row,Sequence,PBM E-score
1,AATGGATG,-0.131
2,ACAGGTAA,-0.15
3,ACACAACA,-0.0742
4,AATGTTTC,0.0286
5,TCCCGAAA,0.206
6,AATCGCCA,-0.135
7,AGTGGTAT,-0.0212
8,TCAAGGAA,-0.0766
9,AAGAGTGC,-0.0877
10,ACAAGTAT,0.00509
11,AATTTGGT,0.113
12,ATGCTCCG,0.311
13,ACCACCCA,-0.0389
14,AGACTTAC,-0.264
15,GTTCTGGA,-0.104
16,TCACTTAA,-0.108
17,ACCATTAG,-0.15
18,GTAATACA,-0.115
19,ATATTGAC,-0.0229
20,AAGCCCCT,-0.0507
21,GTTGTCAA,-0.144
22,GGAATACC,0.27
23,AGAAAACC,-0.101
24,GCTATTAA,-0.0584
25,CCCGGTCA,0.216

row,Sequence,PBM E-score
1,GCACATGA,-0.133
2,CAAGCGGC,0.171
3,GACGCGGC,0.0937
4,ACTTGACA,-0.191
5,CTCTTTAC,-0.141
6,CGACGTTA,0.134
7,ACTACGGC,0.0992
8,GAGAGACC,-0.13
9,ACGTCCGC,0.216
10,ACTCGAAA,-0.139
11,TACATCTA,-0.0537
12,ACAACCGT,-0.246
13,ACATGGCC,0.00729
14,ACAACCTA,-0.095
15,TTGACCAA,-0.0852
16,ACGAGTCG,-0.192
17,CGAAGGAG,-0.00322
18,CGTAACAA,-0.11
19,ATAAACTA,-0.063
20,ATTCTGTC,0.0364
21,ACATAGCT,-0.165
22,GTCTCTGA,-0.141
23,CGCTTTAA,-0.117
24,AATGTCAC,-0.0552
25,TTATAGAA,-0.191

row,Sequence,PBM E-score
1,CGCCACAG,-0.103
2,AGGCCCAA,-0.0932
3,CCGAAATA,0.295
4,CCTGTTTC,-0.137
5,ATTGAAAG,-0.0832
6,AGCAGTCA,-0.175
7,TGTAGGAA,-0.203
8,ATGTCCTA,-0.116
9,ACATCCCT,0.0723
10,AAATACCG,0.111
11,CACGTCCC,0.00264
12,AGGTTGAA,0.0111
13,AAGAGCTG,-0.182
14,TATCGGGA,0.228
15,AGTTAGTG,-0.156
16,AAATAGAT,0.038
17,TGCCAACA,-0.108
18,AAACCGTG,-0.00106
19,ACTTTTGG,0.0191
20,TATCCATA,0.0421
21,CCTGCAGC,-0.0971
22,CCGTTACA,0.147
23,GCCGCATA,0.237
24,ACTCAACG,-0.107
25,ACTTAAGG,-0.16

row,Sequence,PBM E-score
1,ACGGCGCT,0.0913
2,ATAGGTGG,-0.195
3,ATTGACCC,-0.0163
4,AACAAGGG,-0.0813
5,ATATTTCA,-0.0857
6,AAGATCTG,-0.023
7,CTCCCAAA,-0.0924
8,CGCATCAA,0.136
9,AAAATGGT,0.0548
10,AAACAAAC,-0.301
11,GGCTCATA,-0.0875
12,CATTCCGA,0.421
13,CTGATAGC,-0.114
14,GGGGCCCA,0.162
15,CAAATCAG,-0.207
16,TACGACGA,-0.0989
17,ACCCCAAA,0.195
18,CCTAAATA,-0.155
19,AGCACCTC,0.0515
20,ATGAATGA,0.0256
21,GGAAAGCC,0.266
22,CCCATGAG,-0.0814
23,GTCCCTTA,0.0278
24,ATTGGCCA,0.0225
25,TGGTGCAA,-0.159

row,Sequence,PBM E-score
1,GGAGTATA,0.0665
2,GACCTCCA,0.0566
3,TCCGGCGA,0.356
4,CCGGACAA,0.329
5,AACGCGGC,0.123
6,CGGTCTTC,0.123
7,GTGATCGA,0.0343
8,GTACGCCA,-0.192
9,CTGACTAC,-0.18
10,ACTAAACG,-0.0578
11,GAGAGCTA,0.0205
12,AACGACGA,-0.00945
13,GAAGATGA,-0.155
14,ACCGTACA,-0.209
15,AAACTATC,-0.109
16,ACATCATC,0.0908
17,CTGGGTGC,-0.223
18,GGCCAATA,0.18
19,ACCGGCGA,0.281
20,CTCTATAA,-0.299
21,ATAAGCAC,-0.01
22,CATATAGG,-0.105
23,TACTGACA,0.125
24,ACTGTGAT,-0.0576
25,TAGCGGCA,0.107

row,Sequence,PBM E-score
1,GGGAGGAA,0.11
2,AAACCAGC,0.0675
3,GAAGTGGA,0.089
4,CGATTCCG,0.466
5,CTCGTAGA,-0.424
6,AGCTTACA,-0.174
7,CCAGATGA,0.0102
8,TAGGTCCA,-0.122
9,TATCTTAA,-0.0962
10,ATTATCAC,0.0301
11,AATACGTA,0.0467
12,ATAAGGAC,-0.0607
13,CAACGGTA,0.0448
14,ACACGTGC,-0.105
15,ACGGGAGC,0.0886
16,CACAGCAG,-0.234
17,CATGAACG,-0.0457
18,AGTCTCAC,-0.0728
19,GGGGGCGA,-0.149
20,CTGCGTAC,-0.195
21,CCCAAGCC,-0.101
22,AATCGATT,0.0409
23,CAGCCACA,-0.0182
24,CTGGCACC,-0.049
25,CTAACCTC,-0.0875

row,Sequence,PBM E-score
1,GAGGCCCC,-0.0135
2,AGGCCCAT,-0.0631
3,AAAGGAAC,0.0772
4,GCGCCCAA,0.049
5,TCTATAGA,-0.251
6,CCGAGAGC,0.152
7,GCATGGCA,0.16
8,CACCGCAC,-0.11
9,GCGAAACC,0.00164
10,ACGGGTAA,0.0609
11,CAGCTTGG,0.00196
12,ACCGCGTC,0.0777
13,TATCGTAA,0.0543
14,AAAAGCAG,-0.239
15,GGTGATAC,-0.0128
16,ATTAGCAA,0.0647
17,AAAGGTTA,-0.281
18,ACCGCCGC,0.284
19,GCTAAGCA,-0.121

# — the supplement of paper PMC3334620
